# Measurements from PubChem BioAssay AID504706 (National Center for Advancing Translational Sciences (NCATS), 2011).
# The campaign covered roughly 320,000 compounds. About 200 (0.062%) were called active. The inconclusive results got no clear call from the source; some entries with a clear call stand among them for comparison. The call rests on the fitted dose curve; in most records, active means well fitted activation curve with a large enough effect; inconclusive means small, poorly fitted or top-dose-only effect; inactive means no such curve, though single readings can be large or run the other way. No potency is given beside an inconclusive call; the fits are too rough.
# Assay: qHTS assay for re-activators of p53 using a Luc reporter; further: nearly all actives have a fitted effect of over 45% in size; on activity change, positive = activation: % of control where 0% means no effect
# Conditions: H1299 p53-A138V BP100-luciferase reporter, luminescence, 24 h; series mostly up to 92.2 µM; activity change, positive = activation: at the top concentration
# Outline: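 p53-null H1299 cells stably carrying temperature-sensitive p53-A138V and a BP100-luciferase reporter were pinned with compounds (4-point, 1:5 series) and held 24 hrs at 37 deg C. Luminescence was read 10 min after detection reagent.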
# Potency means the concentration at half of the fitted maximal effect; tags describe the fitted curve by direction and shape.
Compound,Potency,"activity change, positive = activation"
CCOc1ccc(C=Nc2cccc3ncccc23)cc1,"inconclusive [activator, single point]",–
CN(C)c1ccc(NC(=O)N2CCOCC2)cc1,"inconclusive [activator, full curve, poor fit]",–
CCCOc1ccc(/C=N/Nc2cccc([N+](=O)[O-])c2)c(O)c1,"inconclusive [activator, partial curve]",–
c1ccc(Cn2nnnc2CN2CCN(Cc3ccc4c(c3)OCO4)CC2)cc1,"inconclusive [activator, single point]",–
Fc1cccc(Cn2cc(C(=S)N3CCCCC3)c3ccccc32)c1,–,inactive: -6.32%
CC(C)CC1=NN(C(=O)c2ccco2)C(O)(C(F)(F)F)C1 (stereo not drawn),–,inactive: 0.396%
O=c1[nH]c(SCc2ccccc2)nnc1-c1ccccc1,"inconclusive [activator, single point]",–
O=C(Nc1ccccc1Cl)C1Cc2ccccc2O/C1=N\O (stereo not drawn),"inconclusive [activator, partial curve, poor fit]",–
COc1ccccc1/C=C/C(=O)N1CCC(c2ccccc2)C1 (stereo not drawn),"inconclusive [activator, partial curve, poor fit]",–
Cc1sc2ncnc(N/N=C/c3ccccc3O)c2c1C,"inconclusive [activator, partial curve, poor fit]",–
COc1cc(Cl)ccc1OCc1cc(C(=O)N(C)CC2CCCCO2)no1 (stereo not drawn),"inconclusive [activator, partial curve, poor fit]",–
N/C(CCS(=O)(=O)c1ccc(Cl)cc1)=N\OC(=O)c1ccccc1Cl,"inconclusive [activator, single point]",–
COc1ccc(C2NC(c3ccc(OC)cc3)C(c3ccccc3)C(=O)C2c2ccccc2)cc1 (stereo not drawn),–,inactive: -8.48%
COc1cc(SC)ccc1C(=O)NCCc1ccccc1,"inconclusive [activator, full curve, poor fit]",–
OCCC1CN(Cc2cc(F)ccc2-n2cccn2)CCN1C1CCCC1 (stereo not drawn),–,inactive: -2.22%
Cc1ccc(-n2ncc3c(NCc4ccccc4)ncnc32)cc1,"inconclusive [activator, partial curve, poor fit]",–
O=C(NCCSc1ccccc1)c1cccnc1,"inconclusive [activator, partial curve, poor fit]",–
CC(C)(C)NC(=O)COC(=O)c1ccccc1Nc1ccc(SC(F)F)cc1,"inconclusive [activator, partial curve, poor fit]",–
Oc1ccccc1CNCc1ccccc1,–,inactive: 0.982%
CCN(Cc1nc2ccccc2c(=O)[nH]1)Cc1nc2ccsc2c(=O)[nH]1,–,inactive: -0.714%
OCCNCCCCOc1ccccc1F,"inconclusive [activator, single point]",–
CCCN1CCN(C(=O)c2cc(COc3ccc(F)c(F)c3)on2)CC1,"inconclusive [activator, single point]",–
COc1cccc(OCc2nc3ccccc3c(=O)n2N)c1,"inconclusive [activator, partial curve, poor fit]",–

Compound,Potency,"activity change, positive = activation"
CCCc1nnc(NC(=O)CSc2ncn[nH]2)s1,"inconclusive [activator, partial curve, poor fit]",–
O=C(/C=C/c1c[nH]c2ccccc12)c1cccc2ccccc12,"inconclusive [activator, full curve, poor fit]",–
CCOc1ccc(N2CC(C(=O)Nc3ccc(S(=O)(=O)N4CCCCC4)cc3)CC2=O)cc1 (stereo not drawn),–,inactive: 5.53%
Cc1ccc(C(=O)Nc2ccc(NC(=O)c3ccc(C)o3)cc2)o1,–,inactive: -0.216%
O=C(c1cccs1)N1CCN(c2nc3ccccc3s2)CC1,–,inactive: 8.16%
CCOc1ccc(NC(=O)c2cccs2)c([N+](=O)[O-])c1,"inconclusive [activator, partial curve, poor fit]",–
Oc1ccccc1N1CCN(c2nc(-c3cccs3)nc3ccccc23)CC1,–,inactive: 2.34%
Cc1ccc(C(=O)CSc2nnc(CNc3ccc(C)cc3C)n2Cc2ccco2)cc1,–,inactive: -1.69%
O=C(Nc1cccc(-c2nc3ccccc3[nH]2)c1)c1ccco1,"inconclusive [activator, single point]",–
CCCCOc1ccc(-c2csc(N)n2)cc1[N+](=O)[O-],"inconclusive [activator, full curve]",–
c1ccc(C[n+]2c(-c3ccccc3)csc2Nc2ccccc2)cc1,"inconclusive [activator, full curve, poor fit]",–
S=c1[nH]nc(C2CCCCC2)n1/N=C/c1ccc(Cl)cc1,–,inactive: 3.42%
COc1ccccc1C(=O)Nc1ccc(N2CCCCC2)cc1,"inconclusive [activator, full curve, poor fit]",–
COc1ccc2c(c1)sc(N)[n+]2Cc1cc(C)cc2cccnc12,–,inactive: -2.87%
CC(=O)N=C1SC2CS(=O)(=O)CC2N1c1ccc(-c2nc3ccc(C)cc3s2)cc1 (stereo not drawn),"inconclusive [activator, partial curve, poor fit]",–
CCN(CC(=O)NC1CCS(=O)(=O)C1)S(=O)(=O)c1ccc2ccccc2c1 (stereo not drawn),–,inactive: -1.71%
C/C(=N\NC(=O)c1nonc1N)c1cccs1,"inconclusive [activator, partial curve, poor fit]",–
c1cncc(-c2nc(-c3ccc4c(c3)OCCO4)cs2)c1,"inconclusive [activator, partial curve, poor fit]",–
CCN1/C(=C\C=C(C(C)=O)C(C)=O)Sc2ccccc21,–,inactive: -2.27%
CC(=O)Nc1ccc(NC(=O)c2ccccc2F)cc1,"inconclusive [activator, full curve, poor fit]",–
CCOC(=O)N1CCC(NC(=O)Cc2ccccc2)CC1,"inconclusive [activator, single point]",–
COC(=O)c1cc(OC)c(OC)cc1NC(=S)NC(=O)c1ccco1,"inconclusive [activator, partial curve]",–
CC(=O)Oc1ccc(C(=O)[C@H]2[C@H]3C(=O)N(c4ccc5ccccc5c4)C(=O)[C@H]3[C@@H]3C=CC=NN32)cc1,"inconclusive [activator, partial curve, poor fit]",–

Compound,Potency,"activity change, positive = activation"
CCc1ccccc1OCC(=O)Nc1nc(-c2cccnc2)cs1,–,inactive: 7.63%
Cn1c(-c2ccc3c(c2)OCO3)cnc1N,"inconclusive [activator, partial curve, poor fit]",–
COc1cc2c3nnc(-c4ccc(F)cc4)c-3cn(Cc3ccc(F)cc3)c2cc1OC,"inconclusive [activator, partial curve, poor fit]",–
Cc1ccccc1Cn1cc(NC(=O)COc2ccccc2)cn1,"inconclusive [activator, single point]",–
O=C(NNC(=O)c1ccco1)c1ccccc1,"inconclusive [activator, single point]",–
O=C(Nc1nnc(SCC(=O)N2CCCCC2)s1)c1cccs1,"inconclusive [activator, single point]",–
CCSc1nnc(NC(=O)CSC2=NN3CCCC(=O)N=C3S2)s1,"inconclusive [activator, single point]",–
Cc1nnc(SCC(=O)Nc2nsc(-c3ccccc3)n2)s1,"inconclusive [activator, partial curve, poor fit]",–
N/C(=N\OC(=O)COc1ccccc1Cl)c1ccc(Cl)cc1,"inconclusive [activator, partial curve, poor fit]",–
c1ccc(CN=C2NN=C(c3cc4ccccc4o3)CS2)cc1,"inconclusive [activator, partial curve, poor fit]",–
O=C1S/C(=C\C=C\c2ccco2)C(=O)N1c1ccccc1,"inconclusive [activator, full curve, poor fit]",–
O=C(Nc1nccs1)c1ccc(Cl)nc1,"inconclusive [activator, partial curve, poor fit]",–
O=C(Nc1ccc(Cl)cc1)c1ccc(-n2cccn2)c([N+](=O)[O-])c1,"inconclusive [activator, single point]",–
Cc1cc(C)c(OCC(=O)OC(C)C(=O)NCc2ccccc2)c(C)c1 (stereo not drawn),–,inactive: -1.25%
CCn1c(C(=O)OC)cc2c1ccn2-c1ccc(F)cc1,"inconclusive [activator, partial curve, poor fit]",–
CCn1c(=O)c(C(=O)Nc2ccsc2C(=O)OC)c(O)c2ccccc21,"inconclusive [activator, partial curve, poor fit]",–
CCN(CC)C(=O)c1ccc(/C=C/c2c[nH]c3ccccc23)[n+](C)c1,"inconclusive [activator, single point]",–
CCOc1ccc(-c2cc(C(=O)Nc3ccc4c(c3)OCCO4)c3ccccc3n2)cc1,–,inactive: 4.65%
CCOC(=O)c1ccc(NCc2nc3ccccc3[nH]2)cc1,"inconclusive [activator, full curve, poor fit]",–
Cc1ccc(NC(=O)c2scc3c2CCCC3)cc1,"inconclusive [activator, partial curve, poor fit]",–
N#C/C(=C\c1cccnc1)c1ccc([N+](=O)[O-])cc1,"inconclusive [activator, single point]",–
Cc1ccc2c(c1)OC(c1ccc3c(c1)OCCO3)CC2=O (stereo not drawn),"inconclusive [activator, partial curve, poor fit]",–
